Sequences and labels used below:
B1: PhoQ; a variant is named by its letters at X, in order, P23837 (parent)
chain: MKKLLRLFFPLSLRVRFLLATAAVVLVLSLAYGMVALIGYSVSFDKTTFRLLRGESNLFYTLAKWENNKLHVELPENIDKQSPTMTLIYDENGQLLWAQRDVPWLMKMIQPDWLKSNGFHEIEADVNDTSLLLSGDHSIQQQLQEVREDDDDAEMTHSVAVNVYPATSRMPKLTIVVVDTIPVELKSSYMVWSWFIYVLSANLLLVIPLLWVAAWWSLRPIEALAKEVRELEEHNRELLNPATTRELTSLVRNLNRLLKSERERYDKYRTTLTDLTHSLKTPLXXLQXXLRSLRSEKMSVSDAEPVMLEQISRISQQIGYYLHRASMRGGTLLSRELHPVAPLLDNLTSALNKVYQRKGVNISLDISPEISFVGEQNDFVEVMGNVLDNACKYCLEFVEISARQTDEHLYIVVEDDGPGIPLSKREVIFDRGQRVDTLRPGQGVGLAVAREITEQYEGKIVAGESMLGGARMEVIFGRQHSAPKDE

Some of the results follow. A value given as a limit tells only on which side of the number the result lay.

Variants of B1 are the subject of this experiment. Description: enrichment ratio after two sorts for PhoP signalling (ratio (wild type AVST 3.29)); higher = more functional. The note with it: with PhoP (E. coli).
Consider WHDK, for which the enrichment ratio is at most 0.25.

Consider WEWP, for which the enrichment ratio was at most 0.25.

In the case of MLRK, the enrichment ratio is at most 0.25.

For the variant WHYW, the enrichment ratio is at most 0.25.

For the variant GSCT, the enrichment ratio was determined as 7.04.

For HWMD, the enrichment ratio was at most 0.25.

Take HWKH: the enrichment ratio was at most 0.25.

For VNQP, the enrichment ratio is at most 0.25.

Turning to YIRP, the enrichment ratio is at most 0.25.

In the case of AAAF, the enrichment ratio was 2.38.

On to VDRP, for which the enrichment ratio was at most 0.25.

Regarding IFAI, the enrichment ratio was at most 0.25.

WFPV: the enrichment ratio is at most 0.25.

Consider ERES, for which the enrichment ratio is at most 0.25.

Turning to ACKK, the enrichment ratio is at most 0.25.

Regarding KFYK, the enrichment ratio is at most 0.25.

Regarding PWHW, the enrichment ratio was at most 0.25.

DLSG: the enrichment ratio is at most 0.25.

On to YHLC, for which the enrichment ratio is at most 0.25.

With GNDI, the enrichment ratio is at most 0.25.

With AMNF, the enrichment ratio was at most 0.25.

Regarding HQLW, the enrichment ratio was at most 0.25.

On to WINR, for which the enrichment ratio was at most 0.25.

For VAFS, the enrichment ratio was at most 0.25.

With QMIQ, the enrichment ratio is at most 0.25.

With AECF, the enrichment ratio worked out at 2.16.

QVLQ: the enrichment ratio was at most 0.25.

Consider RFSY, for which the enrichment ratio is at most 0.25.

In the case of YTNN, the enrichment ratio is at most 0.25.

For the variant IMQV, the enrichment ratio is at most 0.25.

In the case of SMTE, the enrichment ratio was 1.78.

WFRD: the enrichment ratio is at most 0.25.

Consider SGVR, for which the enrichment ratio is at most 0.25.

As to GKVN, the enrichment ratio is at most 0.25.

HYFC: the enrichment ratio is at most 0.25.

Consider GHKM, for which the enrichment ratio was at most 0.25.

With ASWH, the enrichment ratio is at most 0.25.

For VKLC, the enrichment ratio was at most 0.25.

Turning to VQLT, the enrichment ratio is at most 0.25.

On to AIQL, for which the enrichment ratio is 11.7.

For FQCS, the enrichment ratio is at most 0.25.

Consider GPKR, for which the enrichment ratio is at most 0.25.

As for WHWI, the enrichment ratio is at most 0.25.

As to IKHR, the enrichment ratio is at most 0.25.

For VLRY, the enrichment ratio was at most 0.25.

For VAQI, the enrichment ratio is at most 0.25.

Take KECR: the enrichment ratio is at most 0.25.

PMLQ: the enrichment ratio is at most 0.25.

Consider INRV, for which the enrichment ratio is at most 0.25.

For DLDP, the enrichment ratio was at most 0.25.

For the variant VERY, the enrichment ratio is at most 0.25.

HITY: the enrichment ratio was at most 0.25.

Take DYNV: the enrichment ratio was at most 0.25.

In the case of ADWS, the enrichment ratio was at most 0.25.

Take IDRL: the enrichment ratio is at most 0.25.

In the case of FSGI, the enrichment ratio was at most 0.25.

TKEL: the enrichment ratio is at most 0.25.

SASN: the enrichment ratio was 7.84.

As for DCMA, the enrichment ratio is at most 0.25.

Consider DPII, for which the enrichment ratio was at most 0.25.

For the variant GDMK, the enrichment ratio is at most 0.25.

On to DIKV, for which the enrichment ratio was at most 0.25.

In the case of YGPN, the enrichment ratio is at most 0.25.

Regarding WCNF, the enrichment ratio is at most 0.25.

Regarding HAKM, the enrichment ratio is at most 0.25.

As to DDIY, the enrichment ratio is at most 0.25.

For YTIF, the enrichment ratio was at most 0.25.

For the variant FIKF, the enrichment ratio was at most 0.25.

For the variant KQKI, the enrichment ratio was at most 0.25.

With MLCL, the enrichment ratio came out at 8.17.

Consider RHVW, for which the enrichment ratio is at most 0.25.

In the case of DFMV, the enrichment ratio is at most 0.25.

For SFGY, the enrichment ratio is at most 0.25.

With HWCM, the enrichment ratio is at most 0.25.

Regarding FIFQ, the enrichment ratio is at most 0.25.

SSLV: the enrichment ratio worked out at 16.8.

Regarding DYSI, the enrichment ratio was at most 0.25.

Take SCVV: the enrichment ratio stood at 4.84.

QSCG: the enrichment ratio was at most 0.25.

As for ETGM, the enrichment ratio was at most 0.25.

As for ERMF, the enrichment ratio was at most 0.25.

With HGGG, the enrichment ratio was at most 0.25.

With MGYY, the enrichment ratio came to 9.39.

For the variant PGQQ, the enrichment ratio is at most 0.25.

On to AKLL, for which the enrichment ratio came to 14.3.

Take NNYM: the enrichment ratio was at most 0.25.

With SRTY, the enrichment ratio was at most 0.25.

For NTKP, the enrichment ratio was at most 0.25.

Turning to PEEP, the enrichment ratio is at most 0.25.

For SRVI, the enrichment ratio turned out to be 4.38.

In the case of LRET, the enrichment ratio was at most 0.25.

Regarding LFSW, the enrichment ratio was at most 0.25.

As for GYAM, the enrichment ratio was at most 0.25.

As to PDDV, the enrichment ratio is at most 0.25.

In the case of GEDH, the enrichment ratio was at most 0.25.

GAML: the enrichment ratio stood at 8.92.

For FTGM, the enrichment ratio was at most 0.25.

On to FEYP, for which the enrichment ratio is at most 0.25.

Consider RTPI, for which the enrichment ratio is at most 0.25.

On to PRMI, for which the enrichment ratio is at most 0.25.

Consider LQEF, for which the enrichment ratio was at most 0.25.

Turning to GNAA, the enrichment ratio was at most 0.25.

Consider FFTM, for which the enrichment ratio is at most 0.25.

For the variant VLNW, the enrichment ratio is at most 0.25.

As for MIWE, the enrichment ratio is at most 0.25.

Take PTVS: the enrichment ratio was at most 0.25.

Regarding CQQT, the enrichment ratio was at most 0.25.

For TWWN, the enrichment ratio was at most 0.25.

On to GFGE, for which the enrichment ratio is at most 0.25.

With EAKH, the enrichment ratio was at most 0.25.

On to LRIV, for which the enrichment ratio is at most 0.25.

In the case of DLFG, the enrichment ratio is at most 0.25.

As to LCPK, the enrichment ratio was at most 0.25.

On to GNLW, for which the enrichment ratio is at most 0.25.

Turning to ISIC, the enrichment ratio was at most 0.25.

Take HAPR: the enrichment ratio was at most 0.25.

In the case of SASY, the enrichment ratio worked out at 5.

As to HLLC, the enrichment ratio was at most 0.25.

Take ETTS: the enrichment ratio was at most 0.25.

For the variant TCLD, the enrichment ratio is at most 0.25.

With LPPC, the enrichment ratio was at most 0.25.

In the case of SLEP, the enrichment ratio was at most 0.25.

As to WRME, the enrichment ratio was at most 0.25.

Take QHPS: the enrichment ratio is at most 0.25.

Turning to MHWH, the enrichment ratio is at most 0.25.

As to RRGY, the enrichment ratio is at most 0.25.

As to GGDK, the enrichment ratio is at most 0.25.

For HDKQ, the enrichment ratio was at most 0.25.

In the case of DRPQ, the enrichment ratio was at most 0.25.

For the variant SLVK, the enrichment ratio was 1.38.

For the variant RKKY, the enrichment ratio is at most 0.25.

Regarding TFCD, the enrichment ratio was at most 0.25.

On to NPQV, for which the enrichment ratio is at most 0.25.

As to RTGR, the enrichment ratio is at most 0.25.

On to EMRG, for which the enrichment ratio is at most 0.25.

On to VDAC, for which the enrichment ratio is at most 0.25.

As to AITK, the enrichment ratio was determined as 3.04.

In the case of FDYD, the enrichment ratio is at most 0.25.

In the case of KEYT, the enrichment ratio was at most 0.25.

On to PDHM, for which the enrichment ratio was at most 0.25.

Regarding EGFQ, the enrichment ratio is at most 0.25.

Consider DPAA, for which the enrichment ratio is at most 0.25.

Turning to NQAN, the enrichment ratio was at most 0.25.

For the variant MTRS, the enrichment ratio was at most 0.25.

Regarding YGRV, the enrichment ratio is at most 0.25.

As to YNYH, the enrichment ratio was at most 0.25.

Regarding VMMW, the enrichment ratio was at most 0.25.

With RPNA, the enrichment ratio is at most 0.25.

As to PPVF, the enrichment ratio was at most 0.25.

Take WFTN: the enrichment ratio is at most 0.25.

Consider STGI, for which the enrichment ratio stood at 4.79.

With TAWK, the enrichment ratio was at most 0.25.

For the variant LWMG, the enrichment ratio is at most 0.25.

On to RSYC, for which the enrichment ratio is at most 0.25.

For RETA, the enrichment ratio is at most 0.25.

On to SFKF, for which the enrichment ratio was at most 0.25.

As to GMLC, the enrichment ratio is at most 0.25.

For HRFA, the enrichment ratio was at most 0.25.

With MHSA, the enrichment ratio is at most 0.25.

MNSV: the enrichment ratio is 16.9.

Regarding LDWL, the enrichment ratio was at most 0.25.

As to RYYY, the enrichment ratio is at most 0.25.

Regarding LMTC, the enrichment ratio is at most 0.25.

In the case of RRGL, the enrichment ratio was at most 0.25.

As for TCAL, the enrichment ratio came out at 11.1.

For HWMC, the enrichment ratio is at most 0.25.

Regarding NMPR, the enrichment ratio was at most 0.25.

For TQNS, the enrichment ratio came out at 12.8.

For the variant RMRT, the enrichment ratio is at most 0.25.

For the variant VCAQ, the enrichment ratio is at most 0.25.

As to PDKG, the enrichment ratio was at most 0.25.

In the case of VDPM, the enrichment ratio is at most 0.25.

As for KCWR, the enrichment ratio was at most 0.25.

As for PGYC, the enrichment ratio is at most 0.25.

Consider AMPT, for which the enrichment ratio is at most 0.25.

Consider AQQI, for which the enrichment ratio came to 14.3.

On to VCII, for which the enrichment ratio was at most 0.25.

For AFNM, the enrichment ratio is at most 0.25.

For TEFD, the enrichment ratio was 5.86.

Take KKAP: the enrichment ratio is at most 0.25.

RKMK: the enrichment ratio was at most 0.25.

As for GQWD, the enrichment ratio was at most 0.25.

YFMD: the enrichment ratio is at most 0.25.

For the variant VYEC, the enrichment ratio is at most 0.25.

Regarding HPLD, the enrichment ratio was at most 0.25.

As for VFDS, the enrichment ratio was at most 0.25.

In the case of VTMH, the enrichment ratio is at most 0.25.

For the variant EPTC, the enrichment ratio is at most 0.25.

HYHP: the enrichment ratio was at most 0.25.

Turning to SKKG, the enrichment ratio is at most 0.25.

In the case of KNHT, the enrichment ratio is at most 0.25.

On to EHWM, for which the enrichment ratio was at most 0.25.

As for FNKE, the enrichment ratio was at most 0.25.

As to RIFL, the enrichment ratio was at most 0.25.

With KSHY, the enrichment ratio is at most 0.25.

The record behind these values is a collection of fitness landscapes (doi:10.1126/science.1257360).
